Measurements reported in publication PMC4336329 (PLoS ONE, 2015).
Out of some 310,000 compounds screened, about 2,200 (0.71%) showed an effect of 50% or more. The effect is printed as a negative number. This is one part of the list.

Each compound was assayed against human ether-à-go-go-related gene (hERG) potassium channel (human, UniProt Q12809) (assay: primary screen, population patch clamp on CHO cells stably expressing hERG).
Chain of human ether-à-go-go-related gene (hERG) potassium channel (Q12809 whole entry, looked up): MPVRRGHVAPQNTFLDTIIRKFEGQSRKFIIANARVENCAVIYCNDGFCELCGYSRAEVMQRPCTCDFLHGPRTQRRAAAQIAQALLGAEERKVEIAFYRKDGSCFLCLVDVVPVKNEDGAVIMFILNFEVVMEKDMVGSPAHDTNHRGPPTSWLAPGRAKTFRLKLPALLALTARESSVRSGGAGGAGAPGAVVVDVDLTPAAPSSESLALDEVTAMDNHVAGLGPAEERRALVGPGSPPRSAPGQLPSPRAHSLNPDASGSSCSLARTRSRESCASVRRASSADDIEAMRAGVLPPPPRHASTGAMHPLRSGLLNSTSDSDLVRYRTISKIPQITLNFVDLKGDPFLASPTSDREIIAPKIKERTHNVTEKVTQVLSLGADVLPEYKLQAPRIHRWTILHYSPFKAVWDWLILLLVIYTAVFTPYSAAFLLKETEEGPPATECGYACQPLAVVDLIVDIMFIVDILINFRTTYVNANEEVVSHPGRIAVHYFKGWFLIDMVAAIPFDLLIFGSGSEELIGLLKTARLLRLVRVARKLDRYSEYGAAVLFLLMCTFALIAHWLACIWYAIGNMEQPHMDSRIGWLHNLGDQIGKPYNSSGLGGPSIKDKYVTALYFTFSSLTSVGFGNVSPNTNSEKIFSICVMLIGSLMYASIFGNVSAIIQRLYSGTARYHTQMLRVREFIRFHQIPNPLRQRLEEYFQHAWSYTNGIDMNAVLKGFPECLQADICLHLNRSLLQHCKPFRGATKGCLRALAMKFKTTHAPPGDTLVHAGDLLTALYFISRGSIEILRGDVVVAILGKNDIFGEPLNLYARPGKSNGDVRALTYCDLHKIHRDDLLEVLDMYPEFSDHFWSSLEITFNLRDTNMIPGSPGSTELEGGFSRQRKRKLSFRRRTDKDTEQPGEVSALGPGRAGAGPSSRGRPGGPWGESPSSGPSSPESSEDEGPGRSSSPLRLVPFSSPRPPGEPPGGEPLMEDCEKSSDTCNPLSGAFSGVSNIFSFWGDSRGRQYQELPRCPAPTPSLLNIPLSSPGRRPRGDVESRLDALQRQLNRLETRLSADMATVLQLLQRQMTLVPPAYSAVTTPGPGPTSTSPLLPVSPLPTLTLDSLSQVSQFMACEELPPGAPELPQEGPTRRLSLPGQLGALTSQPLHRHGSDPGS

Row | SMILES | hERG current change (%, negative = inhibition) at 1uM [%]
1 | Cc1ccc(S(=O)(=O)CCSc2nc(C)cc(C(F)(F)F)c2C#N)cc1 | -0.18
2 | CN(CC(=O)Nc1ccccc1Cl)C(=O)Cn1cc(C(F)(F)F)ccc1=O | 0.414
3 | CCCCN(C)c1nc(-c2ccco2)c2c(c1C#N)CC(C)(C)OC2 | 10.8
4 | COc1ccccc1NC(=O)c1cc(Cl)nc2ccccc12 | 16.8
5 | CC(=O)Nc1nc2cc3c(cc2s1)OCCO3 | 4.38
6 | COc1ccc(C2NC(=O)NC(C)=C2C(=O)Nc2cc(C)ccc2C)cc1OC (centres unmarked) | 4.32
7 | O=C1CCCN1C(=O)CCC(=O)N1CCCC1=O | -3.97
8 | C=CCNS(=O)(=O)c1ccc(C(=O)OCc2cc(=O)oc3cc(OC)ccc23)cc1 | 12.1
9 | CN(C)C=NC(=O)c1cc(C(=O)c2ccccc2)c[nH]1 | 13.2
10 | CC(C)(C)SCCNC(=O)/C=C/c1cccc([N+](=O)[O-])c1 | 1.55
11 | CC(=O)Nc1ccc(S(=O)(=O)N(C)CC(=O)N/N=C/c2cccs2)cc1 | 10.6
12 | O=C(NNC(=O)c1ccc([N+](=O)[O-])cc1)c1ccc(Br)cc1 | 16.2
13 | COCCCNCC#CCOc1ccc(OC)cc1.O=C(O)C(=O)O | 10.8
14 | CCOc1ccc(/C(O)=C2/C(=O)C(=O)N(CCOCCO)C2c2ccccc2)cc1 (centres unmarked) | 9.82
15 | Cc1onc(-c2ccccc2)c1C(=O)Nc1cccnc1 | 2.74
16 | COC(=O)c1cc(NC(=S)N2CCN(C(=O)C3CCCO3)CC2)cc(C(=O)OC)c1 (centres unmarked) | 1.76
17 | CCc1ccc(NC2=NCC(=O)N2Cc2ccc3c(c2)OCO3)cc1 | 13.1
18 | CN(CC(=O)NC1(C)CCS(=O)(=O)C1)S(=O)(=O)c1ccc(Cl)cc1 (centres unmarked) | 13.2
19 | Cc1c(C(=O)N2CCC(Cc3ccccc3)CC2)sc2ncnc(N3CCC(C)CC3)c12 | 9.72
20 | Cc1cc(C)cc(NC(=S)NC2CC3CCC(C2)N3Cc2ccco2)c1 (centres unmarked) | -48.1
21 | COCCN(C(=O)CSc1nnc(-c2cccc(F)c2)n1N)c1c(N)n(CC(C)C)c(=O)[nH]c1=O | 14.8
22 | COCc1c(Br)c(C)[nH]c(=O)c1C#N | 8.35
23 | COc1cc(Nc2cc(C)nc3nc(C)nn23)cc(OC)c1OC | 7.68

Row | SMILES | hERG current change (%, negative = inhibition) at 1uM [%]
24 | Cc1ccc(C)c(S(=O)(=O)N2CCN(C(=O)CSc3ccccc3)CC2)c1 | 6.6
25 | Cc1ccc(S(=O)(=O)/N=C(\Nc2cc(C)on2)c2ccc(Cl)cc2)cc1 | 0.503
26 | O=C(c1cc(COc2ccc3ncccc3c2)on1)N1CCCC1 | 13.5
27 | COc1ccc(N(CC(=O)Nc2ccc(C)cn2)S(=O)(=O)c2c(C)nn(C)c2C)cc1 | 5.85
28 | CC1C(=O)C(C)C(c2cccs2)NC1c1cccs1 (centres unmarked) | 9.2
29 | COC(=O)[C@@]12CCCN1[C@H](c1ccc(-c3ccc(OC)cc3)c(OC)c1)[C@H]1C(=O)N(C)C(=O)[C@H]12.O=C(O)C(F)(F)F | 4.72
30 | C=CCNc1cnn(CC(C)=O)c(=O)c1Br | -0.682
31 | O=C1CCCc2c1cc(C(=O)NCCCN1CCOCC1)c(=O)n2-c1ccc(Cl)cc1 | 11.5
32 | CN(c1ccc(C(=O)NCC2CCCO2)cc1)S(C)(=O)=O (centres unmarked) | 16.1
33 | COc1ccc(CNC(=O)CN(C(=O)c2csnn2)c2cnc3ccccc3c2)cc1 | 7.09
34 | COC(=O)c1cc(C)sc1NC(=O)C1C2C=CC(CC2)C1C(=O)O (centres unmarked) | 8.38
35 | Cc1cc(C)c(C#N)c(N2CCN(c3ccccc3F)CC2)n1 | 17.8
36 | CC(=O)c1ccccc1NS(=O)(=O)c1c(C)nn(-c2ccccc2)c1C | 8.49
37 | COc1ccc(C(=O)Nc2nc(-c3ccc(OC)cc3)c(-c3ccc([N+](=O)[O-])cc3)s2)cc1 | 17.2
38 | Cc1cccc(OCC(=O)Nc2nccs2)c1C | 8.63
39 | O=C1NC(=O)/C(=C/c2cc3c(cc2Br)OCO3)S1 | 10.1
40 | COc1ccc(C)cc1-n1ccn(CC(=O)Nc2ccc(Br)cc2F)c(=O)c1=O | 3.64
41 | O=C(Nc1ccccc1)c1ccc(=O)n(Cc2cccc(Cl)c2)c1 | 5.97
42 | Cc1scc(C(=O)N2CCN(c3ccc(Cl)cc3)CC2)c1C | 3.45
43 | COc1ccc(-c2nc(N)n(C(=O)c3ccccc3Cl)n2)cc1 | 13.4
44 | COc1ccc(CCNc2nc(C)nc3c2nnn3Cc2ccccc2)cc1OC | 11.1
45 | COc1cc(N2C(=O)CSC23C(=O)Nc2ccccc23)cc(OC)c1OC (centres unmarked) | 5.55
46 | Cl.Oc1cccnc1CCc1ccccc1 | 7.98

Row | SMILES | hERG current change (%, negative = inhibition) at 1uM [%]
47 | COCCCN1CCc2[nH]c(=S)[nH]c(=O)c2C1 | 15.8
48 | CCCCn1c(=O)n(Cc2cccc(F)c2)c(=O)c2c1ncn2Cc1ccco1 | 4.42
49 | Cc1cc(C)c2c(CN3CCN(CCO)CC3)cc(=O)oc2c1 | -32.7
50 | COc1cc(SC)ccc1C(=O)Nc1nc(C)cs1 | 5.52
51 | Cc1cc([N+](=O)[O-])ccc1NC(=S)NC(=O)Cc1ccccc1 | 10.3
52 | O=C(CCCCn1c(=O)[nH]c2ccccc2c1=O)NCCc1c[nH]c2ccccc12 | 7.75
53 | CNC(=O)C1CN(C(=O)c2cccc(S(=O)(=O)N3c4ccccc4CC3C)c2)c2ccccc2O1 (centres unmarked) | 8.58
54 | O=c1oc2ccc(C#CC3(O)CCCCC3)cc2cc1-n1cc(C2(O)CCCCC2)nn1 | 21.5
55 | COC(C(=O)Nc1ccc(C(N)=O)cc1)c1ccccc1 (centres unmarked) | 16.9
56 | Cc1c(C(=O)O)c(-c2ccccc2)nn1-c1ccccc1 | 10.8
57 | O=c1c2sc(-c3ccccc3)cc2nc2n1CCCCC2 | 8.88
58 | C[N+](C)(C)CCOC(N)=O.[Cl-] | 16.2
59 | O=C(O)CCC(=O)Nc1ccc(-c2nnc(-c3ccco3)o2)cc1 | 14.2
60 | Cc1ccc2nsnc2c1NC(=S)NC(=O)c1ccco1 | 7.33
61 | CC(=O)c1cccc(NC(=O)C(C)OC(=O)c2cccc(-n3cnnn3)c2)c1 (centres unmarked) | -11
62 | O=[N+]([O-])c1ccc(N2CCOCC2)cc1SCc1ccco1 | -4.94
63 | CC(/C=C/c1ccccc1)=N\Nc1nc(C)cc(C)n1 | 3.96
64 | CC(C)[C@H](NC(=O)N1CC(=O)Nc2ccccc21)C(=O)N1CCC(C(=O)O)CC1 | 13.7
65 | O=Cc1c(-c2ccccc2)cc2oc3ccccc3cc1-2 | 17.7
66 | COc1ccc(NC(=O)NCCCCc2ccccc2)c(OC)c1 | 18.3
67 | CNC(=S)/N=C/NOCc1ccc(Cl)cc1Cl | 6.22
68 | Cc1scc(C(=O)NCc2ccco2)c1-c1ccccc1 | 6.99
69 | Cc1cc(NC(=O)CCC(=O)N(CC(=O)NCC2CCCO2)c2ccccc2)no1 (centres unmarked) | 22.4

Row | SMILES | hERG current change (%, negative = inhibition) at 1uM [%]
70 | O=C(NC(=S)NNC(=O)c1ccccc1O)c1ccccc1 | 19
71 | Cc1nc2ccccn2c1C(=O)/C=C/c1cccc([N+](=O)[O-])c1 | -8.89
72 | O=C(COC(=O)c1ccc[nH]c1=O)NC1CCCCCCC1 | 13
73 | CCOC(=O)NC(NC(=S)Nc1ccccc1[N+](=O)[O-])C(Cl)(Cl)Cl (centres unmarked) | 5.35
74 | CCOC(=O)CN1C(=O)N[C@@H](c2cccc(C(F)(F)F)c2)C(C(C)=O)=C1C | 14.3
75 | O=C(/C=C/c1c(F)cccc1Cl)Nc1ncccn1 | 13.3
76 | O=S(=O)(O)c1nc2ccccc2[nH]1 | 8.27
77 | COc1ccccc1N1C(=O)C(Cl)=C(N2CCCC2)C1=O | 6.4
78 | O=C(Cn1cnc2c(NC(=O)OCc3ccccc3)ncnc21)NCc1ccccn1 | 0.393
79 | O=C(NCC(=O)N1CCCC(C(F)(F)F)C1)c1ccc2ccccc2c1 (centres unmarked) | 0.745
80 | O=C1C2C3C=CC(C3)C2C(=O)N1c1ccc(S(=O)(=O)Nc2nccs2)cc1 (centres unmarked) | 17.3
81 | COc1cc(/C=N/N=C(\N)c2nonc2N)cc(OC)c1OC | 4.18
82 | O=C(Cc1c(C(=O)O)[nH]c2ccccc12)NCCN1CCN(c2ccccc2F)CC1 | -1.98
83 | NS(=O)(=O)c1ccc2nc(NC(=O)Nc3ccc(F)cc3)sc2c1 | 1.36
84 | O=C(c1ccc(C(F)(F)F)cc1)N1CCN(S(=O)(=O)c2ccc3c(c2)OCCCO3)CC1 | 12
85 | COc1cccc(NC(=O)CC2COc3ccccc3O2)c1 (centres unmarked) | 15.6
86 | Cc1ccc(S(=O)(=O)c2nc(NN(C)C)sc2Cl)cc1 | 8.76
87 | COc1ccc(Cl)cc1NC(=S)Nc1ccccc1F | 13.9
88 | CCc1ccc(C(=O)NCc2ccc(Cl)cc2Cl)cc1 | 5.29
89 | Cc1ccc(NC(=O)Cc2c[nH]c3ccccc23)cc1S(=O)(=O)N1CCCCCC1 | 18.4
